The campaign covered roughly 220,000 compounds. About 16,000 (7.3%) were called active. The shares of active, inactive and inconclusive entries below differ from those in the screen. Calls come from the whole dose curve; as a rule, active = well fitted inhibition curve with a large enough effect (not every such curve was filed as active); inconclusive = small, poorly fitted or top-dose-only effect, or another doubt; inactive = no such curve, though single readings can be large or run the other way. A potency beside an inconclusive call is a rough fit, not a confirmed value.
These compounds were tested against Aldehyde dehydrogenase 1A1 (Homo sapiens) (UniProt P00352) (assay: qHTS Assay for Inhibitors of Aldehyde Dehydrogenase 1 (ALDH1A1)). Details: Purified ALDH1A1, NADH fluorescence, propionaldehyde substrate; series mostly up to 75.3 µM.
Potency is the fitted concentration of half-maximal effect; tags give direction and shape of the fitted curve.

UniProt P00352, sequence (P00352 whole entry, looked up): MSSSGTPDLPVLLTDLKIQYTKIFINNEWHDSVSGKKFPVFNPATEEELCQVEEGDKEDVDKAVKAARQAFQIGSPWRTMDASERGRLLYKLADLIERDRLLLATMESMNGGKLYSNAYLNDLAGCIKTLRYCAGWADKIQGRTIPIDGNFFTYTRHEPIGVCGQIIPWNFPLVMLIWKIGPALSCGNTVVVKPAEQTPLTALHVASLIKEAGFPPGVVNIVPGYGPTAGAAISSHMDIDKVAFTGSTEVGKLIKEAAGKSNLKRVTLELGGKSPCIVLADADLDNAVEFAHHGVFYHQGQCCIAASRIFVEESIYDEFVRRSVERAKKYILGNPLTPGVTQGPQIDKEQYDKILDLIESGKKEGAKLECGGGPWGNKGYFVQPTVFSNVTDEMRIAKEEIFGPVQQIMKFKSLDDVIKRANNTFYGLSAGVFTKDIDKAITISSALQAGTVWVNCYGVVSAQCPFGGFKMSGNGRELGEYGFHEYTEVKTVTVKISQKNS

Potency, inactive:
COC(=O)C1=C(N)OC2=C(C(=O)CC(C)(C)C2)C1c1cccnc1 (stereo not drawn)
CCOc1ccc(NC(=S)N2CCN(C/C=C/c3ccccc3)CC2)cc1
Cc1cc(=O)[nH]c(S/C=C/c2ccccc2)n1
O=C(NCC1CCCO1)c1cc([N+](=O)[O-])ccc1Cl (stereo not drawn)
CN(C(=O)COc1cccc(Br)c1)C1CCS(=O)(=O)C1 (stereo not drawn)
Cc1ccsc1C(=O)Nc1ccc2c(c1)OCCO2
COC(=O)c1ccc(NC(=O)CSC2=NCCN2)cc1
C/C(=N\NC(=S)NCc1ccccc1)c1ccc2ccccc2c1
CCOC(=O)c1c(C)n(C)c2c(C)cc(O)c(OC(=O)CC)c12
CCN(CC)CCNC(=O)COc1ccc(Cl)cc1Cl
NC(=NCCc1ccccc1)NS(=O)(=O)c1ccccc1
COC(=O)c1cc(NC(=O)c2c(F)c(F)c(F)c(F)c2F)cc(C(=O)OC)c1
Cc1ccc(-c2nsc(SCC(=O)NCC3CCCO3)n2)cc1 (stereo not drawn)
CCCCCCN1C=CC=C/C1=C/C=C(C#N)C#N
COc1ccc(CCNC(=O)COC(=O)c2cc(OC)c(OC)cc2OC)cc1OC
CCN(CC)S(=O)(=O)c1cccc(NC2=NCC(C)S2)c1 (stereo not drawn)
N#CCCCn1c(-c2ccccc2)noc1=O
NS(=O)(=O)c1ccc(N=Nc2c(=O)[nH]n3c(=O)c4c([nH]c23)CCCC4)cc1
O=C(CNC(=O)c1ccccc1)OCc1nc2ccccc2s1
O=C1CC(c2ccco2)CC(O)=C1C=NCCN1CCN(C(=O)Nc2ccc(Cl)cc2)CC1 (stereo not drawn)
COc1ccc(/C(O)=C2\C(=O)C(=O)N(CCCN(C)C)C2c2ccccc2F)cc1Cl (stereo not drawn)
COc1ccccc1NC(=O)CSc1nnc(C)n1CC1CCCO1 (stereo not drawn)
Cc1nc(C)n(C(C)CC(=O)O)n1 (stereo not drawn)
COc1ccc(C(=O)NCC(=O)N/N=C/c2ccc([N+](=O)[O-])s2)cc1OC
C=CCn1c(-c2cccn(Cc3ccc(Cl)cc3Cl)c2=O)n[nH]c1=S
O=C(c1ccccc1)c1cc([N+](=O)[O-])ccc1N1CCCC1
CC(C)Cc1nc2ccc(N)cc2[nH]1

Potency, active:
CCOC(=O)c1c(C)oc2c1c(C(c1cccnc1)N1CCOCC1)c(O)c1ccccc12 (stereo not drawn) 7.08 µM
CN(CCO)c1ccc([N+](=O)[O-])cc1C(=O)O 22.4 µM
CC(C)(C)N=C1NN=C(c2cc3ccccc3o2)CS1 22.4 µM
CCCCn1c(SCC(=O)c2ccc(OCC)cc2)nc2cc(S(N)(=O)=O)ccc21 35.5 µM
CS(=O)(=O)c1ccc2nc(NC(=O)CN3C(=O)C4CC=CCC4C3=O)sc2c1 (stereo not drawn) 12.6 µM
CC(C)OC(=S)N/C(=N\S(=O)(=O)c1ccccc1)c1ccccc1 11.2 µM
Cc1ccc2[nH]c(=O)c(C(c3nnnn3C3CCCC3)N3CCCc4ccccc43)cc2c1 (stereo not drawn) 14.1 µM
CN(C)c1nc(SCC(=O)Nc2ccccc2)nc(N2CCOCC2)n1 25.1 µM
O=C(Nc1ccc(Cl)c([N+](=O)[O-])c1)C(NCCCO)c1ccccc1 (stereo not drawn) 0.708 µM
Cc1[nH]c2ccccc2c1C1(O)C(=O)N(Cc2ccc3c(c2)OCO3)c2ccccc21 (stereo not drawn) 0.708 µM
Cc1cnc(CN(C)Cc2c(C(=O)N3CCc4ccccc4C3)nc3ccc(Cl)cn23)[nH]1 17.8 µM
COc1ccc(N2C(=O)CC(Sc3nccc(C)n3)C2=O)cc1 (stereo not drawn) 22.4 µM
CCOC(=O)CC(=O)CSc1ncc(C(=O)OCC)c(N)n1 22.4 µM
CCCC(C(=O)NC1CCCC1)N(Cc1ccc2c(c1)OCO2)C(=O)c1snc(C(N)=O)c1N (stereo not drawn) 12.6 µM
Cc1ccc(-n2c(O)c(C=Nc3ccccc3-c3n[nH]c(=S)[nH]c3=O)c3ccccc3c2=O)cc1C 3.55 µM
COc1ccc(-c2csc(N)n2)cc1F 11.2 µM
COc1ccc(N2CCC(CNS(=O)(=O)c3cccc(C(F)(F)F)c3)C2)cc1 (stereo not drawn) 8.91 µM

Potency, inconclusive:
COCCn1nnnc1C(c1ccccn1)N1CCN(c2cc(C)ccc2C)CC1 (stereo not drawn) 39.8 µM [inhibitor, single point]
CCOc1ccccc1NC(=O)c1cc(-c2ccncc2)nc2c(Cl)cccc12 22.4 µM [inhibitor, partial curve]
Cc1sc(NC(=S)NC(=O)C2CCCCC2)c(C(N)=O)c1C 35.5 µM [inhibitor, partial curve, poor fit]
CN(C)/C=C/C(=O)c1cnc(-c2cccc(Cl)c2)s1 35.5 µM [inhibitor, single point]
Cc1cc(=O)oc2cc(NC(=O)C3CC(=O)N(Cc4ccccc4)C3)ccc12 (stereo not drawn) 25.1 µM [inhibitor, partial curve]
COC(=O)CSC1=C(C#N)C(c2sccc2C)CC(=O)N1 (stereo not drawn) 22.4 µM [inhibitor, single point]
Cc1ccc(NC(=O)CSc2nc3ccccc3c(=O)n2CCCC(=O)N2CCCC2)cc1 31.6 µM [inhibitor, single point]
CCOC(=O)c1[nH]cnc1C(=O)Nc1ccc(Cl)cc1 25.1 µM [inhibitor, single point]
Nc1ccccc1-c1ccccc1N 6.31 µM [inhibitor, single point]
Cc1cccc(/N=C/c2c(O)ccc3oc4c(c23)CCCC4)n1 44.7 µM [inhibitor, single point]
Cc1cccc(C)c1NC(=S)NC(=O)c1ccc(Br)o1 39.8 µM [inhibitor, single point]
CCn1c(SCc2c(F)cccc2Cl)nnc1-c1ccco1 25.1 µM [inhibitor, partial curve]
CC(C)(C)C(=O)[C@@H]1[C@@H]2C(=O)N(c3ccc4c(c3)OCCO4)C(=O)[C@@H]2C2c3ccccc3C=CN21 (stereo partly drawn) 39.8 µM [inhibitor, single point]
O=C(NC1CCCC1)c1ccc(CSCc2ccccc2F)o1 44.7 µM [inhibitor, single point]
CCc1nnc(NC(=O)CSc2nnc(CNc3ccc(OC)cc3)n2CC)s1 20 µM [inhibitor, partial curve]
C/C(=N\NC(=O)c1ccc(NS(=O)(=O)c2cccs2)cc1)c1ccc(C(C)(C)C)cc1 39.8 µM [inhibitor, single point]
O=C(Nc1nc2ccccc2[nH]1)c1cccc([N+](=O)[O-])c1 4.47 µM [inhibitor, partial curve, poor fit]
COCC(=O)N1CCC2(CC1)CCN(c1ccc(-c3ccccc3)cc1)CC2 14.1 µM [inhibitor, partial curve]
CNC(=O)c1ccccc1NC(=O)c1ccco1 22.4 µM [inhibitor, single point]
Cc1ccc(C(=O)N/N=C/c2sc(=O)n(Cc3cccc(C(=O)O)c3)c2Cl)cc1 25.1 µM [inhibitor, single point]
Cc1cccc(-c2c3c(=O)n(C)c(=O)n(C)c3cn2C(C)(C)C)c1 35.5 µM [inhibitor, single point]
Cc1cc2cc(CN(Cc3cccs3)Cc3nnnn3CC3CCCO3)c(=O)[nH]c2cc1C (stereo not drawn) 35.5 µM [inhibitor, single point]
O=C(O/N=C/c1ccc2c(c1)OCO2)c1ccccc1Cl 31.6 µM [inhibitor, partial curve]
O=C(Nc1ccccc1F)c1ccc(Cn2cc(Br)cn2)cc1 39.8 µM [inhibitor, single point]
COc1ccccc1CN(Cc1ccco1)S(=O)(=O)c1ccc(-n2cnnn2)c(OC)c1 39.8 µM [inhibitor, single point]
COc1ccc(-c2cc(C(=O)N3CCN(C(c4ccccc4)c4ccccc4)CC3)no2)cc1OC 28.2 µM [inhibitor, single point]
N#Cc1ccc(C(=O)Nc2cc(S(=O)(=O)N3CCCC3)ccc2OCC(F)(F)F)cc1 25.1 µM [inhibitor, single point]
Cc1ccc(NC(=O)c2ccco2)c(NC(=O)CN2C(=O)c3ccccc3C2=O)c1 8.91 µM [inhibitor, single point]
OC(CNCC1CCCO1)Cn1c2ccc(Br)cc2c2cc(Br)ccc21 (stereo not drawn) 39.8 µM [inhibitor, single point]
CC(Sc1n[nH]c(=O)[nH]c1=O)C(=O)OCc1ccccc1 (stereo not drawn) 44.7 µM [inhibitor, single point]
Cc1ccc(S(=O)(=O)c2cccc(S(=O)(=O)N3CCCC3)c2)cc1S(=O)(=O)N1CCCC1 7.08 µM [inhibitor, partial curve]
COc1ccc(OC)c(C(c2nnnn2CC2CCCO2)N2CCN(C)CC2)c1 (stereo not drawn) 39.8 µM [inhibitor, single point]
Nc1ccc(O)cc1 28.2 µM [inhibitor, single point]
Cc1cnc(CN2CCCC(C(=O)c3ccc4c5c(cccc35)CC4)C2)[nH]1 (stereo not drawn) 28.2 µM [inhibitor, partial curve]
